From the supplement of paper PMC3334620
The full ranking holds about 33,000 sequences; the median of “E-score (-0.5 to 0.5)” is about -0.013, and the highest 2% start at about 0.3. The list shows a part of the results.

biological target: T1, Msn1 (UniProt P22148); test: PBM E-score (8-mer binding enrichment) (E-score (-0.5 to 0.5)); higher = stronger / more preferred TF binding; most listed sequences are background and not binding sites; settings: protein concentration: 200 nM; construct: GST-full length
T1 sequence: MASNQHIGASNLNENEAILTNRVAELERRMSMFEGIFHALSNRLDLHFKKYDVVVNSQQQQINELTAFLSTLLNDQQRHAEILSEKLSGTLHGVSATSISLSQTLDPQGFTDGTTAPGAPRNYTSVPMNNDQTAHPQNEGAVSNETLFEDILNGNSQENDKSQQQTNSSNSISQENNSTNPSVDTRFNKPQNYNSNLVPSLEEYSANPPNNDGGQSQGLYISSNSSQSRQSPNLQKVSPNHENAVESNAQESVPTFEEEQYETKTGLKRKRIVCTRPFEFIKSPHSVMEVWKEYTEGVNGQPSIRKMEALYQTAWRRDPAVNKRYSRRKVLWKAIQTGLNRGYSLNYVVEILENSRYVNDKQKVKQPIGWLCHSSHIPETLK
Method in brief: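 Detection of bound protein used fluorescent anti-GST, with scans normalised by masliner. The proteins were GST-tagged yeast transcription factors applied at about 100-200 nM to universal all-10-mer Agilent arrays made double-stranded by primer extension. Each ungapped eight-base word, pooled with its reverse complement, was scored with an E-score from the Universal PBM Analysis Suite.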

Row | Sequence | PBM E-score
1 | ATCGCTGG | -0.122
2 | CTAGGTCA | -0.0235
3 | GGTTCCAC | -0.185
4 | CGCCCGGA | -0.0187
5 | AATCGGCG | -0.0561
6 | TAAGGTCA | -0.0968
7 | CCATAAGG | -0.153
8 | ACGTCGCT | -0.211
9 | CACTGCAA | -0.0467
10 | CCTGTCAG | -0.0618
11 | AAGTAGCA | -0.123
12 | ACTGCGCC | -0.163
13 | ATGGAACC | -0.0583
14 | AGGATTTC | -0.136
15 | ACGGGTCT | -0.309
16 | CGAATAGC | 0.0726
17 | AAAATACA | 0.097
18 | GAAGGGCA | -0.146
19 | CAGTCACC | -0.109
20 | AGACAGGG | -0.0575
21 | ACAACTTA | 0.0165
22 | ATAACAAA | 0.164
23 | ACCTTGTG | -0.0531
24 | GTCCGTTA | 0.21
25 | AGCCTGTG | -0.221

Row | Sequence | PBM E-score
26 | GACTTTAA | 0.198
27 | CACTGCCG | 0.0826
28 | ATCTCTAC | -0.0664
29 | CCCCCACG | -0.189
30 | GTCATGCA | 0.0643
31 | ACATCGGA | 0.123
32 | CTTCCTGC | -0.287
33 | CAGTGCTA | 0.0231
34 | AAATTAAG | 0.0473
35 | AGTTATTA | 0.0736
36 | CTATAACC | -0.0603
37 | CCATGCGG | -0.273
38 | GCACGAAC | 0.188
39 | AGAGCACG | -0.123
40 | CCATCTAA | -0.0753
41 | GGAATCAC | 0.0517
42 | AACAACTG | 0.161
43 | GATAAGGA | 0.0875
44 | GGAAATGA | 0.172
45 | AACACTAA | 0.00264
46 | CGCTAGCA | 0.0276
47 | AATCACGT | 0.0215
48 | ATGTCGGG | 0.187
49 | CAGATCGA | -0.0136
50 | AGGCCGAG | 0.068

Row | Sequence | PBM E-score
51 | TGGCTGAA | -0.155
52 | AGGGGAAC | -0.295
53 | ACTTTAGC | -0.0296
54 | AAGATGCC | -0.229
55 | CTCCAAAG | -0.0517
56 | AGGTATGG | -0.26
57 | CATAAACC | 0.122
58 | CCTACTCG | -0.163
59 | ATGTTGGA | 0.265
60 | AAAAAACT | -0.00951
61 | ATGTCTAC | 0.313
62 | GATACATC | -0.0118
63 | GGTTTTCA | 0.15
64 | GCTTTCCA | -0.188
65 | CGTCCTAA | 0.245
66 | ATAATGCC | 0.0821
67 | TACTCTGA | -0.0497
68 | CATTTCCC | 0.16
69 | GCGTGCAC | -0.159
70 | TTCTAAAA | 0.173
71 | GTTAAAAC | -0.0848
72 | GACCTAGA | -0.0349
73 | CGCGTTAC | 0.0906
74 | CATAACGG | -0.0245
75 | CTAGACAC | 0.0417

Row | Sequence | PBM E-score
76 | GTAGATTA | 0.199
77 | TGCAGGAA | 0.0458
78 | AAAAACCG | 0.128
79 | ATAGGCTA | 0.0699
80 | CCTAATTC | 0.0894
81 | TATCTGAA | 0.0264
82 | CTCGACCC | -0.385
83 | AAGACGGA | 0.0975
84 | AATTTCGA | 0.0679
85 | ATAGGAGC | -0.0549
86 | GAAGAGAA | -0.0958
87 | GTTAACAA | 0.124
88 | AACAGTTC | 0.17
89 | CTCTTTGC | -0.247
90 | CGGTGCAG | -0.187
91 | GGACCCCA | -0.187
92 | ACCTCTAC | -0.0781
93 | CAACTTTC | -0.0177
94 | GAGAGGTA | -0.259
95 | AATACTTC | 0.174
96 | CGTAACCC | -0.118
97 | CATTGTCC | 0.456
98 | ACATCGTC | 0.0423
99 | ACTCGACG | 0.116
100 | CCTCGGAC | 0.238

Row | Sequence | PBM E-score
101 | GCCTCCGC | -0.182
102 | GTCGCACA | 0.0631
103 | GCGCCAAA | -0.144
104 | CCGATTAA | 0.15
105 | GCCGTCCC | -0.22
106 | CATATGGG | -0.137
107 | AGTAAACG | 0.00772
108 | CAAATCAC | -0.028
109 | AGATGCCT | -0.0381
110 | CGATGAAA | 0.143
111 | AGCAGGTC | 0.0183
112 | AGACTGCA | -0.174
113 | ATCACTCG | -0.0696
114 | CCAGGATC | -0.0775
115 | GTTTTAGA | 0.109
116 | CCTAAAGG | -0.11
117 | AGCTGCAG | -0.0954
118 | CATCTGTC | 0.0441
119 | CCCAAATC | -0.12
120 | CCAGTCCA | -0.369
121 | AACAGGAA | 0.123
122 | ATGTTAGA | -0.043
123 | CTATTATA | 0.102
124 | CCACTACC | -0.136
125 | GGAGCGCC | -0.304

Row | Sequence | PBM E-score
126 | CCTCCGAC | -0.135
127 | CTAACACA | 0.097
128 | CCCGAGCC | -0.196
129 | GCTCCTTA | -0.0474
130 | AACTACGA | -0.0234
131 | TCGCCCCA | -0.122
132 | AAGCACTA | -0.14
133 | TATTGGCA | 0.0554
134 | CACTAGGA | -0.0355
135 | ATGTAGAC | 0.128
136 | TAGGATGA | -0.0659
137 | GTATTGTA | 0.0984
138 | ATAGTTAG | 0.0668
139 | AGCATGCA | -0.225
140 | CACTAATA | 0.0713
141 | AGACACCT | 0.0501
142 | CTCAAGAG | -0.239
143 | AGCTCTAA | 0.0441
144 | ATATTGTA | 0.143
145 | CCTTACCG | -0.062
146 | CTGCGACA | 0.238
147 | GGGCTACC | -0.0707
148 | CACACGGA | -0.0548
149 | CAATGATC | 0.0342
150 | ATTGGACA | 0.445

Row | Sequence | PBM E-score
151 | ATAGTACG | 0.0327
152 | CATCGATG | 0.104
153 | AAGCCAAG | -0.237
154 | CCACGGGC | -0.2
155 | AGATTAAC | -0.0305
156 | ATACCAGG | 0.12
157 | AGTTTGAA | 0.117
158 | CTCTCAGC | -0.101
159 | CCCGCTCG | -0.345
160 | GTTTAAGA | -0.0581
161 | ACGCAGAA | -0.00973
162 | ACAATTGA | 0.257
163 | ACCGCAGC | -0.215
164 | CAATAGGG | -0.166
165 | ACCTAGCG | -0.101
166 | ATAGCTGG | -0.0251
167 | AGGGGCGG | -0.382
168 | AAACCCAC | -0.0117
169 | ACATTGTC | 0.411
170 | CGAGTCCC | -0.0566
171 | AAGCCTGC | -0.0718
172 | CACGTAAG | -0.117
173 | CCGCTGTC | 0.0815
174 | AAATTTGC | 0.0627
175 | AAATACTA | 0.0672

Row | Sequence | PBM E-score
176 | ATTGACAA | -0.0686
177 | CCAGCAAA | 0.06
178 | TATACCGA | 0.162
179 | GTCTGGTA | 0.046
180 | GAGGACCC | -0.218
181 | GATGAAGC | -0.0632
182 | TCTACCCA | 0.00996
183 | GGCTCGAA | -0.124
184 | CATGGGTA | 0.0506
185 | ATAATCAG | -0.134
186 | CGTATGAC | 0.0996
187 | ACACGTTA | -0.0199
188 | AAAAATTC | 0.182
189 | AAAAGCAC | -0.15
190 | ACCATAGC | -0.123
191 | TAACAACA | 0.0839
192 | ATTAGCCG | -0.026
193 | CTTGTTGC | 0.0476
194 | CACCTCCA | -0.00802
195 | CACGTGCG | 0.00866
196 | CCCCATAC | -0.182
197 | CCTTGTAC | 0.183
198 | AGTTTTGG | 0.0755
199 | AGCTCAGG | 0.126
200 | AAATCCGA | 0.202

Row | Sequence | PBM E-score
201 | CGTGGTAG | -0.0553
202 | GTGACCTA | 0.0752
203 | CGCTGATC | -0.029
204 | AGCAATTG | 0.00301
205 | ACGCAGCT | 0.055
206 | GCGGTCTA | -0.0194
207 | CCAAGGTC | -0.152
208 | CATCCAGG | -0.157
209 | GGAACCAC | 0.0433
210 | AGCGTATA | -0.00084
211 | AAGCCGGC | -0.0588
212 | ATATACTC | -0.0332
213 | CACTATAA | -0.0316
214 | CATGCGTA | -0.0462
215 | AGGGCATC | -0.258
216 | AATACTAA | 0.124
217 | CCAAGAAA | 0.0697
218 | TGCACGCA | -0.195
219 | AACGTTCA | -0.108
